# The supplement of paper PMC8728848
# Some of the results follow.
# B1: GS13846A-bth-444-19-444 (Bacteroides thetaiotaomicron) (protein)
# chain: SCENEFDVSDKADSLISVTVNTLNNQAAYNVGETAQAELWIQRGGLKDASGKVQFVVDPLLLDSLNQEDKTNYELLPENCYEMTNTEFTVDKNELCGYITYHPEKILALSAYNETKYVLPLRLISNDLAINPARNTSFLAFTILEPIVHISNAGVYNINPDLTSTMDIQIGVPFTNKWDILCNLTEDLSLIDEYNQINKVNFTLLPENAYTAPESVTLQEGVSQITASYQLKNNLVPGNYILPIKIGSITASQGGVPNNSLVIDEESNVLFCIVKEGNKINKSGWEVIECSSEHAGNEATYMIDDNESTYWHCKFKNEAGSSVPPFHFIIDMKKEITIAQIDLLNRGDGAANNIKWVEFYASNNNSEWDKIGAGDFNDEGTRATFRYYVKSTKARYLKLIIPEGYGNNCPPAAIRELTVYGLEGNN
# Assays:
# Test in all cases: glycan array binding signal (z-score within array); higher = stronger binding
# Conditions in all cases: glycan notation: IUPAC condensed, linker removed
# Neu5Ac(a2-8)Neu5Ac = target: Neu5Ac(a2-8)Neu5Ac
# Summary of the method: (§1)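 Negative Z-scores can be read as non-binding. The Z-score is calculated within each array and then averaged across arrays of one protein sequence at different concentrations or buffers and across linkers. Arrays, 3228 in all, were curated from the Consortium for Functional Glycomics database and kept only where the protein sequence was available.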
# [1] = target: Neu5Ac(a2-8)Neu5Ac(a2-3)Gal(b1-3)GalNAc(b1-4)[Neu5Ac(a2-3)]Gal(b1-4)Glc
# Summary of the method: as §1
# [2] = target: Neu5Ac(a2-8)Neu5Ac(a2-3)Gal(b1-3)GalNAc(b1-4)[Neu5Ac(a2-8)Neu5Ac(a2-3)]Gal(b1-4)Glc
# Summary of the method: as §1
# [3] = target: Neu5Ac(a2-8)Neu5Ac(a2-3)Gal(b1-4)Glc
# Summary of the method: as §1
# [4] = target: Neu5Ac(a2-8)Neu5Ac(a2-3)Gal(b1-4)GlcNAc
# Summary of the method: as §1
# [5] = target: Neu5Ac(a2-8)Neu5Ac(a2-3)[Gal(b1-3)GalNAc(b1-4)]Gal(b1-4)Glc
# Summary of the method: as §1
# [6] = target: Neu5Ac(a2-8)Neu5Ac(a2-3)[GalNAc(b1-4)]Gal(b1-4)Glc
# Summary of the method: as §1
# [7] = target: Neu5Ac(a2-8)Neu5Ac(a2-8)Neu5Ac
# Summary of the method: as §1
# [8] = target: Neu5Ac(a2-8)Neu5Ac(a2-8)Neu5Ac(a2-3)Gal(b1-4)Glc
# Summary of the method: as §1
# [9] = target: Neu5Ac(a2-8)Neu5Ac(a2-8)Neu5Ac(a2-3)[Gal(b1-3)GalNAc(b1-4)]Gal(b1-4)Glc
# Summary of the method: as §1
# [10] = target: Neu5Ac(a2-8)Neu5Ac(a2-8)Neu5Ac(a2-3)[GalNAc(b1-4)]Gal(b1-4)Glc
# Summary of the method: as §1
# [11] = target: Neu5Ac(a2-8)Neu5Ac(a2-8)Neu5Ac(a2-8)Neu5Ac(a2-3)[GalNAc(b1-4)]Gal(b1-4)Glc
# Summary of the method: as §1
# [12] = target: Neu5Ac(a2-8)Neu5Gc(a2-3)Gal(b1-4)GlcNAc
# Summary of the method: as §1
# [13] = target: Neu5Ac(b2-6)Gal(b1-4)GlcNAc
# Summary of the method: as §1
# Neu5Ac(b2-6)GalNAc = target: Neu5Ac(b2-6)GalNAc
# Summary of the method: as §1
# [14] = target: Neu5Ac9Ac(a2-3)Gal(b1-3)GlcNAc
# Summary of the method: as §1
# [15] = target: Neu5Ac9Ac(a2-3)Gal(b1-4)GlcNAc
# Summary of the method: as §1
# [16] = target: Neu5Ac9Ac(a2-6)Gal(b1-4)GlcNAc
# Summary of the method: as §1
# [17] = target: Neu5Gc(a2-3)Gal(b1-3)GlcNAc
# Summary of the method: as §1
# [18] = target: Neu5Gc(a2-3)Gal(b1-3)[Fuc(a1-4)]GlcNAc
# Summary of the method: as §1
# Neu5Gc(a2-3)Gal(b1-4)Glc = target: Neu5Gc(a2-3)Gal(b1-4)Glc
# Summary of the method: as §1
# [19] = target: Neu5Gc(a2-3)Gal(b1-4)GlcNAc
# Summary of the method: as §1
# [20] = target: Neu5Gc(a2-3)Gal(b1-4)GlcNAc(b1-3)Gal(b1-4)GlcNAc(b1-2)Man(a1-3)[Neu5Gc(a2-3)Gal(b1-4)GlcNAc(b1-3)Gal(b1-4)GlcNAc(b1-2)Man(a1-6)]Man(b1-4)GlcNAc(b1-4)GlcNAc
# Summary of the method: as §1
# [21] = target: Neu5Gc(a2-3)Gal(b1-4)[Fuc(a1-3)]GlcNAc
# Summary of the method: as §1
# [22] = target: Neu5Gc(a2-6)Gal(b1-4)GlcNAc
# Summary of the method: as §1
# Neu5Gc(a2-6)GalNAc = target: Neu5Gc(a2-6)GalNAc
# Summary of the method: as §1
# [23] = target: Neu5Gc(a2-8)Neu5Ac(a2-3)Gal(b1-4)GlcNAc
# Summary of the method: as §1
# [24] = target: Neu5Gc(a2-8)Neu5Gc(a2-3)Gal(b1-4)GlcNAc
# Summary of the method: as §1
# [25] = target: Neu5Gc(a2-8)Neu5Gc(a2-3)Gal(b1-4)GlcNAc(b1-3)Gal(b1-4)GlcNAc
# Summary of the method: as §1
# [26] = target: Neu5Gc(a2-8)Neu5Gc(a2-6)Gal(b1-4)GlcNAc
# Summary of the method: as §1
# [27] = target: Neu5Gc(b2-6)Gal(b1-4)GlcNAc
# Summary of the method: as §1
binder,measurement,setting,value
B1,glycan array binding signal (z-score),Neu5Ac(a2-8)Neu5Ac,-0.237
same,glycan array binding signal (z-score),[1],-0.371
same,glycan array binding signal (z-score),[2],-0.149
same,glycan array binding signal (z-score),[3],-0.443
same,glycan array binding signal (z-score),[4],-0.36
same,glycan array binding signal (z-score),[5],-0.35
same,glycan array binding signal (z-score),[6],-0.236
same,glycan array binding signal (z-score),[7],-0.236
same,glycan array binding signal (z-score),[8],-0.358
same,glycan array binding signal (z-score),[9],-0.173
same,glycan array binding signal (z-score),[10],-0.444
same,glycan array binding signal (z-score),[11],-0.276
same,glycan array binding signal (z-score),[12],-0.233
same,glycan array binding signal (z-score),[13],-0.298
same,glycan array binding signal (z-score),Neu5Ac(b2-6)GalNAc,-0.132
same,glycan array binding signal (z-score),[14],-0.173
same,glycan array binding signal (z-score),[15],-0.195
same,glycan array binding signal (z-score),[16],-0.092
same,glycan array binding signal (z-score),[17],-0.14
same,glycan array binding signal (z-score),[18],0.04
same,glycan array binding signal (z-score),Neu5Gc(a2-3)Gal(b1-4)Glc,-0.111
same,glycan array binding signal (z-score),[19],-0.104
same,glycan array binding signal (z-score),[20],-0.52
same,glycan array binding signal (z-score),[21],-0.428
same,glycan array binding signal (z-score),[22],0.024
same,glycan array binding signal (z-score),Neu5Gc(a2-6)GalNAc,-0.322
same,glycan array binding signal (z-score),[23],-0.419
same,glycan array binding signal (z-score),[24],-0.385
same,glycan array binding signal (z-score),[25],-0.325
same,glycan array binding signal (z-score),[26],-0.262
same,glycan array binding signal (z-score),[27],-0.035
